# The list shows a part of the results.
# Molecular target: T1, OsWOX13 (Oryza sativa, UniProt Q5QMM3 1-267)
# T1 sequence: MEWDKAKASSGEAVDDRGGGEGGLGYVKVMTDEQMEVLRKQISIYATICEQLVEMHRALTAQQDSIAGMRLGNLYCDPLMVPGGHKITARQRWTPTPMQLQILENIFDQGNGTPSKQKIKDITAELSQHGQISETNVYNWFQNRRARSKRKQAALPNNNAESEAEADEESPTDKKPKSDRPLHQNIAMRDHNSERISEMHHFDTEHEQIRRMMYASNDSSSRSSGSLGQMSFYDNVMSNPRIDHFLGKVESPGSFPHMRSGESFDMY
# Experiment: protein-binding microarray (RPBM); PBS, 2% BSA, 51.3 ng/ul salmon testes DNA, 50 uM zinc acetate, 200 nM TF, 25 C, 1 h; high values mean tight binding
# Settings: protein: recombinant; tags: N-terminal polyhistidine and DsRed monomer fusion (pET32a); label: CyDye5-dUTP incorporated in the synthesized complementary strand; 3' TTTTT single-stranded linker to array surface; dsDNA, one strand shown
# Method in brief: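 Transcription factors, each fused N-terminally to a polyhistidine tag and DsRed, were expressed in E. coli BL21-CodonPlus and purified on Ni–NTA. A custom Agilent array was made double-stranded by primer extension with Cy5-dUTP and blocked with 2% BSA. It was incubated with 200 nM protein in PBS, 2% BSA, salmon testes DNA and 50 µM zinc acetate at 25 °C for 1 h, then washed. The binding signal is per-feature fluorescence intensity (arbitrary units) read on an Axon 4000B scanner.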
row,Sequence,binding signal
1,GAATAGACTTAATAAATGAACACAAATATATAGATCATTTCGGAGTCACCTAGTGCAG,4140 fluorescence intensity (a.u.)
2,TATGAATTTAAACTTAATTTATTTGTTTGCATACTGATGCCGGAGTCACCTAGTGCAG,17000 fluorescence intensity (a.u.)
3,TTAAAATTTAAATTTTGACCATTCAGATAACTAAAAGGAGCGGAGTCACCTAGTGCAG,15900 fluorescence intensity (a.u.)
4,TTTGGTTGGATTGGATTGGATTGGATTGGCTGCTTCCCTGCGGAGTCACCTAGTGCAG,25000 fluorescence intensity (a.u.)
5,GAATAATTAAGATTTAAAGATATCTTTTGGTGGGTGGGAACGGAGTCACCTAGTGCAG,23400 fluorescence intensity (a.u.)
6,CGGGTTACAATAAATCACGTCATAGATAGGGCTCAAGAAACGGAGTCACCTAGTGCAG,3240 fluorescence intensity (a.u.)
7,GGATATCCGTGATTATTTCATGATTATGACTTCTAGATGGCGGAGTCACCTAGTGCAG,19400 fluorescence intensity (a.u.)
8,ATGATTTATAATTCCGGCGAATGATCATTTCTCTTTTGCACGGAGTCACCTAGTGCAG,32600 fluorescence intensity (a.u.)
9,ATTGTATAATTTGTACAAGTTAGCAGTTTAATAATGCATTCGGAGTCACCTAGTGCAG,4120 fluorescence intensity (a.u.)
10,ATACTTTGACCATCAATTTATCCCATGTTATGTTTCCGATCGGAGTCACCTAGTGCAG,7180 fluorescence intensity (a.u.)
11,CCTTTTAATTGAAAAGCTCCTTATTGGCTTCCCACCTAAGCGGAGTCACCTAGTGCAG,46900 fluorescence intensity (a.u.)
12,AGCCTAATTAATCCGTCATTAGCAAATATTTACTGTAGCACGGAGTCACCTAGTGCAG,28400 fluorescence intensity (a.u.)
13,ACATGATTAGAGCAACAAGGCTGTGTGACCCACCCGTGGCCGGAGTCACCTAGTGCAG,30300 fluorescence intensity (a.u.)
14,TGCACAAAATCACCACCGAATGATTTGAATTCAAGCATGACGGAGTCACCTAGTGCAG,10300 fluorescence intensity (a.u.)
15,ACACTGACAGAGCCGACGCCGACGGACACCAAACTTCCCTCGGAGTCACCTAGTGCAG,3480 fluorescence intensity (a.u.)
16,ATTTAAATCTAATTTTAACTCTCCACCTGGTTGCAGTCGGCGGAGTCACCTAGTGCAG,10800 fluorescence intensity (a.u.)
17,GCAAATTGAAAATTAAGGATAAACTAGTTTTAGACCATGCCGGAGTCACCTAGTGCAG,35200 fluorescence intensity (a.u.)
18,CTGATTAGTGATTTATTTAATTTGAGGAATCATTTTGGCACGGAGTCACCTAGTGCAG,64900 fluorescence intensity (a.u.)
19,CGCTGCAAATAAATTGGGTCGACTTGTACCGCCGGTTAATCGGAGTCACCTAGTGCAG,3450 fluorescence intensity (a.u.)
20,ACAATGACTGCGACTTACTTCGTCCTCCCTCGGCGCGATACGGAGTCACCTAGTGCAG,4620 fluorescence intensity (a.u.)
21,TGTTAACCAGATTTATTATATTTGAAAATGTCACCTCCAACGGAGTCACCTAGTGCAG,8160 fluorescence intensity (a.u.)

row,Sequence,binding signal
1,GGAATTACTAGAAATTTTGTGACTGAAATACACTAGATTCCGGAGTCACCTAGTGCAG,4310 fluorescence intensity (a.u.)
2,AAAGCTAATCAGTTGAGTTCATTGGTTGACTGACTCGATACGGAGTCACCTAGTGCAG,10900 fluorescence intensity (a.u.)
3,TTGTTTGCCAATCAATCACAGACTTCATTGCGTGATCTACCGGAGTCACCTAGTGCAG,36300 fluorescence intensity (a.u.)
4,TGATTGCAATTAAAATGGAACGAAGTGGAACGAAGGGAGTCGGAGTCACCTAGTGCAG,6270 fluorescence intensity (a.u.)
5,AACGCTGATAATCAAACGCTACATTACAGACACTAACAGCCGGAGTCACCTAGTGCAG,3500 fluorescence intensity (a.u.)
6,TCAATGATTAATTTACTAGTGCCATCATGGTCATGAGGAACGGAGTCACCTAGTGCAG,46200 fluorescence intensity (a.u.)
7,TGACATAATTAGTCCTCAACCAAACAAACCCTTAATTACCCGGAGTCACCTAGTGCAG,21400 fluorescence intensity (a.u.)
8,ATTAATTAGGGGTATTTTGGTTCTTTTATATTCACCTCGACGGAGTCACCTAGTGCAG,25600 fluorescence intensity (a.u.)
9,ACATATGTGATTAGTATCAGTTCATCAGTAGTCTTCCAATCGGAGTCACCTAGTGCAG,18500 fluorescence intensity (a.u.)
10,GCGGTGACGAGGATAATTTGTCTTCAATAGCTAGACTTTTCGGAGTCACCTAGTGCAG,14400 fluorescence intensity (a.u.)
11,TAGCACATGATTAATTGAGTATTAATTATTTTAAACTTTACGGAGTCACCTAGTGCAG,21300 fluorescence intensity (a.u.)
12,ATTCTAGATAAATTGCCACCGGGTCCATATATTAGTTGATCGGAGTCACCTAGTGCAG,3890 fluorescence intensity (a.u.)
13,CTGCTAATCACGTTTTAGTTCGAATTAATGCCATCCACTCCGGAGTCACCTAGTGCAG,18000 fluorescence intensity (a.u.)
14,GTTTAATTTTATTGGGTGCATGTATTGTATTAGTTGAGATCGGAGTCACCTAGTGCAG,14000 fluorescence intensity (a.u.)
15,GGATGAGACACGCCGACGCGTCATGCCGCCTCAAAGGCCGCGGAGTCACCTAGTGCAG,3410 fluorescence intensity (a.u.)
16,ATGCTTGTAATTGTCAAGGTGTTAACTGTACGCGGCATATCGGAGTCACCTAGTGCAG,5350 fluorescence intensity (a.u.)
17,CTGATCTTCCTAATTATTTTGTGACAGATGATGGGACGGACGGAGTCACCTAGTGCAG,13000 fluorescence intensity (a.u.)
18,GCCCCTCGCTTTTGATTAGTTACGTGCCGGTCCCCACTACCGGAGTCACCTAGTGCAG,5220 fluorescence intensity (a.u.)
19,GTATTTAATGAAATTTTATCTGGCCCCATTTTATATTGGACGGAGTCACCTAGTGCAG,6970 fluorescence intensity (a.u.)
20,ATACAATTAATGCTTTTATAATTTTAGATAATGAATTAAACGGAGTCACCTAGTGCAG,10300 fluorescence intensity (a.u.)
21,AGTTTTATGATAAATTATATTGTAATGTATCGATTCTGTACGGAGTCACCTAGTGCAG,6560 fluorescence intensity (a.u.)

# Reference: publication PMC7819943, “Rice protein-binding microarrays: a tool to detect cis-acting elements near promoter regions in rice”
